Target: CDK7/Cyclin H/MAT1 trimeric complex (Homo sapiens, UniProt P50613)
Assay: Caliper/LabChip EZ Reader CDK7 inhibition assay

UniProt P50613, sequence (P50613 whole entry): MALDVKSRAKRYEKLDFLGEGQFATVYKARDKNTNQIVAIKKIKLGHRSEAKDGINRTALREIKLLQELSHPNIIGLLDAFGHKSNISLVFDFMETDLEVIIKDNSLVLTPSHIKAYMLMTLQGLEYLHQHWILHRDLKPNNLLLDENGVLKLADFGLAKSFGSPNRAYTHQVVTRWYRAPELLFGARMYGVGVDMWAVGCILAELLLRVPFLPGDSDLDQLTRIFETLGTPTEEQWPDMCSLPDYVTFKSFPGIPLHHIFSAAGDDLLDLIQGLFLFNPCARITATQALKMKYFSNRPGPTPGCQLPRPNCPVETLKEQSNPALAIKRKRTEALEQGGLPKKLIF
UniProt P50613, sequence (P51946 whole entry partner): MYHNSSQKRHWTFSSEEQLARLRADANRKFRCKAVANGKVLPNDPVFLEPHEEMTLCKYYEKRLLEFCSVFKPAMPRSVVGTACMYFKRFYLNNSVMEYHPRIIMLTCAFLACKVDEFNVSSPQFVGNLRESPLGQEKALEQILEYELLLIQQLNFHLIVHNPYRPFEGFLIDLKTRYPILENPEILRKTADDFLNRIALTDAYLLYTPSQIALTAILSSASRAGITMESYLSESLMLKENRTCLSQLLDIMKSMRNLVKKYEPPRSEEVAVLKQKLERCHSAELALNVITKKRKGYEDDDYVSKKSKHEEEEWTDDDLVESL
UniProt P50613, sequence (P51948 whole entry partner): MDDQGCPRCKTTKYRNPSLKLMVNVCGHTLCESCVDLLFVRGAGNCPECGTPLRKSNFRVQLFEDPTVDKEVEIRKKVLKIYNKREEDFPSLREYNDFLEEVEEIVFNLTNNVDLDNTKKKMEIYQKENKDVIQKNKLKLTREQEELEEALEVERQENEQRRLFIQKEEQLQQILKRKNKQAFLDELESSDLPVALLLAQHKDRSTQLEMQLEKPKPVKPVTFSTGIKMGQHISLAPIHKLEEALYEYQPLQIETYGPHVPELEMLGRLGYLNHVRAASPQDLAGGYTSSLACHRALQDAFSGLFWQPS

| SMILES | IC50 [nM] |
| --- | --- |
| C=CC(=O)Nc1cccc(C(=O)N[C@H]2CC[C@H](Nc3ncc(Cl)c(-c4c[nH]c5ccccc45)n3)CC2)c1 [Compound 135, 3-acrylamido-N-((trans)-4-(5-chloro-4-(1H-indol-3-yl)pyrimidin-2-ylamino)cyclohexyl)benzamide] | 100 to 1000 |
| C=CC(=O)Nc1ccc(C(=O)N[C@@]2(C)CCC[C@@H](Nc3ncc(Cl)c(-c4c[nH]c5ccccc45)n3)C2)cc1F [Compound 156] | > 1000 |
| CN(C)C/C=C/C(=O)Nc1ccc(C(=O)N[C@@]2(C)CCC[C@@H](Nc3ncc(Cl)c(-c4c[nH]c5ccccc45)n3)C2)c(F)c1 [Compound 157] | 100 to 1000 |

Results, then the compound that gave them:

| IC50 [nM] | SMILES |
| --- | --- |
| > 1000 | C=CC(=O)Nc1cccc(CO[C@H]2CC[C@H](Nc3ncc(Cl)c(-c4c[nH]c5ccccc45)n3)CC2)c1 [Compound 155, N-(3-((((1R,4R)-4-((5-chloro-4-(1H-indol-3-yl)pyrimidin-2-yl)amino)cyclohexyl)oxy)methyl)phenyl)acrylamide] |
| > 1000 | CN(C)C/C=C/C(=O)Nc1ccc(C(=O)N[C@H]2CCC[C@@](C)(Nc3ncc(Cl)c(-c4c[nH]c5ccccc45)n3)C2)cc1 [Compound 159] |
| < 100 | CN(C)C/C=C/C(=O)Nc1ccc(C(=O)N[C@@]2(C)CCC[C@@H](Nc3ncc(Cl)c(-c4c[nH]c5ccccc45)n3)C2)cc1F [compound 158] |

Reference: patent US10906889B2, “Polycyclic inhibitors of cyclin-dependent kinase 7 (CDK7)” (Dana-Farber Cancer Institute, Inc., priority 2013, dated 2021)
